In article PMC12136788:
The list shows a part of the results.

T1: UNK ZnF1-3 (human, UniProt Q9C0B0 31-174)
T1 sequence: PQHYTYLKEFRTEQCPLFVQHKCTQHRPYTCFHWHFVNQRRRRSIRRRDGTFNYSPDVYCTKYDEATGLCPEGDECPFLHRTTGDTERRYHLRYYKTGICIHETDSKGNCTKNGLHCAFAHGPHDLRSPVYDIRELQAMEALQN

B1: chr3:176740097:176740098:-_ENSG00000177565_ENST00000430069|hu_mus|hu_hu_hu_mus_True|28_38 (ssRNA)
RNA: GGGAGUUCUACAGUCCGACGAUCUGUUUUGUAUACCACAAAAGGAGGCACUUUCAGUAUCUGCAAAAGGUGUUUAGUCCUAAAACAUACUCACCUAGAGAAUAAUUAAAACAGAAUAUCUGUUACACUCUAAGACCUACUCCACAACAGAGGAUUGAGCAUCA
B2: chr3:10015032:10015033:+_ENSMUSG00000027533_ENSMUST00000029046|mus_mus|mus_mus_mus_hu_True|8_88 (ssRNA)
RNA: GGGAGUUCUACAGUCCGACGAUCGUUUUUACCAUCACAAGUGAUGAUACAGUCUGGCUUGGCCAUUGCGCCCAUUUUUCGCAAAGCUAUUCCCACUCCUAGCUCCUUCAUGUAUUCAUCAAAGCCUUGGCUUUCCACCAGGCGCAACAGAGGAUUGAGCAUCA
B3: 149829854_149829974_897_CDS_ENSG00000168280_ENST00000414838|human|control|control (ssRNA)
RNA: GGGAGUUCUACAGUCCGACGAUCUUUCUCCUCUGUAGAGAUGCCAGCAACAACAGGAGCAAUAUUGUCUAUGAUGGGGGUGUUAUCACAAGGCUCCAGGUUCUUCUGGUCCUUGGCACUGAUCUGUUCAUCCUCAGGCACAGCCAACAGAGGAUUGAGCAUCA
B4: 6220086_6224093_530_CDS_ENSMUSG00000025907_ENSMUST00000027040|mouse|control|control (ssRNA)
RNA: GGGAGUUCUACAGUCCGACGAUCCUGAAUAGCAAUCUUGUAUUUGCUUUGAAUGGCAUGCUUAAGAUCAGCCACAGUUUGCACAGUUAGCUCAGUGUCAAAUGUCAGCGUGGUUCCGGUGUUAACCAGAAACACAUAUAACUUCAACAGAGGAUUGAGCAUCA
B5: chr6:72791194:72791195:-_ENSMUSG00000055239_ENSMUST00000068697|mus_mus|FALSE|FALSE (ssRNA)
RNA: GGGAGUUCUACAGUCCGACGAUCUGAGUUAUGGUGCAGAUGUGUCUGAAAUGACCACAGCUGGAAAACGAACUUCUGAAACUUCUCAACAACCAAUUAAAAAAAGAAAACCCCACCGGCCUUGACCUCUGGUGUACCAGGAGCCAACAGAGGAUUGAGCAUCA
B6: chr6:83430385:83430386:-_ENSMUSG00000014554_ENSMUST00000014698|mus_hu|FALSE|FALSE (ssRNA)
RNA: GGGAGUUCUACAGUCCGACGAUCUUGGGAGACACAACAUUUUUCUAGCUUCAGAAAGUCAGGGAGCCCAGAUCACAGCCUGAACUUCAUGGUAUUGGUUACAGAUUCUUUACAAAGGUGUUUACCUCUCUCAUGAGGUCUUCUCAACAGAGGAUUGAGCAUCA
B7: 72544383_72546128_1578_3pUTR_ENSMUSG00000031858_ENSMUST00000050561|mouse|control|control (ssRNA)
RNA: GGGAGUUCUACAGUCCGACGAUCGCAGGUACCACCAUGUUGUUACUCUCCCUGUGAUUUCCCAACACAUAGAAGAUGUGACCCAGCAGCACAAGGGAGCAGGCUGUGAGGCGGUUCAGGUCCUCUGCAUUUGACAUCUUCAGACAACAGAGGAUUGAGCAUCA
B8: chr1:163117127:163117128:-_ENSG00000143248_ENST00000313961|hu_mus|hu_hu_hu_mus_False|1_48 (ssRNA)
RNA: GGGAGUUCUACAGUCCGACGAUCUGCUACAAAGGAUGUAACUCAACUCACAGGGCAACUUUUGGAAGCCUGACCAGAUGACUACUUGAUUAACUCCUUAUAAAAUUCAGAGCGCACAAAGCGGGGCAGAGAAUCCUUUUCCAUCAACAGAGGAUUGAGCAUCA
B9: 154959545_154962785_857_3pUTR_ENSMUSG00000042751_ENSMUST00000043313|mouse|control|control (ssRNA)
RNA: GGGAGUUCUACAGUCCGACGAUCGAUGUACAGCUGACUCUUGAGGAUGUAAUCGAUGACUGGCUGGGACAGGUAAUCCACAACAUGGCCGUCCCCAUGCUGCAGGGCCAGCCUGCUCUUGGUGGAGCUGACUACAGACAUGGGCAACAGAGGAUUGAGCAUCA
B10: chr2:69705335:69705336:+_ENSMUSG00000068882_ENSMUST00000090852|mus_hu|FALSE|FALSE (ssRNA)
RNA: GGGAGUUCUACAGUCCGACGAUCUUGACCUUUAUCUUCUAACCAUUCUUUUAUGUCAUCAAGAGUUGCAUCAGUUGGGAAGCCUUUAAUAUAAACAGAUCUGUUUUUUACAUCAUUUUUAUACUCAUCAGUCACUUCAGGUAGCAACAGAGGAUUGAGCAUCA
B11: chrX:71549400:71549401:+_ENSMUSG00000019087_ENSMUST00000019231|mus_mus|FALSE|FALSE (ssRNA)
RNA: GGGAGUUCUACAGUCCGACGAUCAGUAGGAAGAGGACAAACCUUUCCAUCCACUGUGUCACAAAACAGAAACAUGACAACCUAGACACCAAUACUCCCUCAAUUCCUCUCAGGUGUAUGUCACACAAUCUGGGUCAAAGUGAUCAACAGAGGAUUGAGCAUCA
B12: 62134705_62139040_4542_CDS_ENSMUSG00000018501_ENSMUST00000155712|mouse|control|control (ssRNA)
RNA: GGGAGUUCUACAGUCCGACGAUCUGAGCUCACUGCACCUGAUGUGGUAACUGCUGGCAGAUUGAAGAUCUCUGUUCCUGGCUGAGCAGCUGCCAUAUCAGAGUCACCUCCACCAGAAGAGUUCAACUUACGAAAAAUUUCCUGCAACAGAGGAUUGAGCAUCA
B13: chr3:123074269:123074270:-_ENSMUSG00000028114_ENSMUST00000029759|perfect_dup|FALSE|FALSE (ssRNA)
RNA: GGGAGUUCUACAGUCCGACGAUCGCGUCUUCUACCAAGACAAAAAUGUUCUAUUAUAUGAAAAAUUUCUACUGGUUUUUCUAUAUUGCCAAUCUCAGGUUCUUCUGUGAUAAUUAAGUCAAUGUCAACAUUAGCAUGAAUGAACAACAGAGGAUUGAGCAUCA
B14: 124406771_124406891_1735_3pUTR_ENSMUSG00000040010_ENSMUST00000045557|mouse|control|control (ssRNA)
RNA: GGGAGUUCUACAGUCCGACGAUCAGUUUUCUUUCACAGCCACUGUGGACACCUGACGUUUGAGGGACAGUGGAUUGUGUUAGGCGGCUGGUGGUGCUCACUGGAGCUGUGGGGCUGACAGGCCUGGCCGCUGAUCUUCCAAAGCAACAGAGGAUUGAGCAUCA
B15: 95749731_95749851_1752_3pUTR_ENSMUSG00000015749_ENSMUST00000165307|mouse|control|control (ssRNA)
RNA: GGGAGUUCUACAGUCCGACGAUCUGGCACGGCCACCCAGAGACCGCUCCACGGCAAGUCUGGCCUUAGAAAGGGACAGGCUCCUUAAAGGGCCCUGAACUGUCACUGAGCAGAACUGAGUCCAUGACCUGCCUCUGAAGAGAACAACAGAGGAUUGAGCAUCA
B16: chr10:35314101:35314102:-_ENSG00000108094_ENST00000537177|hu_mus|FALSE|FALSE (ssRNA)
RNA: GGGAGUUCUACAGUCCGACGAUCUUCACCUGUACAGAGAUAAUGCAACCAUGUCAGCUUCCGUCCACUGAAAUGCUGGCUAUAAAACAAUUCAAACAUCUGUACACUUUUCUCUAGCUCUUGGGGAAUUGCAAAUGUAGAUGACAACAGAGGAUUGAGCAUCA
B17: 120978192_120978312_3978_3pUTR_ENSG00000164109_ENST00000296509|human|control|control (ssRNA)
RNA: GGGAGUUCUACAGUCCGACGAUCGUGAUCUGUUACAGGACUGGUAAGCUACAACCCUGGGGCCGAAGCAAACAGCCAUGUUUUUUUCUUAUUGGAACACACUCACGCUCAUUCAUUUAUGUAUUGUCUAUAGCUGCUUUCAGCCAACAGAGGAUUGAGCAUCA
B18: chr14:57341393:57341394:-_ENSMUSG00000021938_ENSMUST00000022507|mus_mus|FALSE|FALSE (ssRNA)
RNA: GGGAGUUCUACAGUCCGACGAUCUAUGAAUAGUGAGACUCUAUAUGAAAUGUAAGCAACAACUCUAACUUACACAGGAUCUAUGGUUUAUACAAUCUUAACCCCCAUGCCUCCCACCCACUAGUAUACUACAGUAUGUGUCCCCAACAGAGGAUUGAGCAUCA
B19: 183601471_183601784_1791_CDS_ENSG00000218336_ENST00000511685|human|control|control (ssRNA)
RNA: GGGAGUUCUACAGUCCGACGAUCAUCACACUCGGUGCCCUUCCAGCCGCUGAAACACAGGCAGCGGCCCUUGGAGUACUGCCCGUUGCCACUACAUAACACUGGACAGGCGGCUCUUGAACAAUCCGGACCCAGAAAUCCUGGCAACAGAGGAUUGAGCAUCA
B20: 77829102_77831656_1509_CDS_ENSMUSG00000037791_ENSMUST00000049167|mouse|control|control (ssRNA)
RNA: GGGAGUUCUACAGUCCGACGAUCAUCUACUUUGACAACAUGUUGUGAAAUGGUGUCCUGGAACCGAUCAAACACCUGGCACCGAUUGCUCAGAGUCAGGUUCUUCUGGUUCAGCACCACAUGUUCGAUGUGAUUCGGACACAUCAACAGAGGAUUGAGCAUCA
B21: chr2:179988524:179988525:-_ENSG00000187231_ENST00000428443|hu_hu|FALSE|FALSE (ssRNA)
RNA: GGGAGUUCUACAGUCCGACGAUCUAAAGUUUGCUGAAUCGAUGCUCCAUCAGCUGGUGCUACAUCUACGCACAACAUCCCUAAUAAGCCAUCCAACUGCUGAGACAAAUCUUGGGCAACACCAUGAAAUUCAAGAGCUGCUUGCAACAGAGGAUUGAGCAUCA
B22: chr2:32989838:32989839:-_ENSMUSG00000038831_ENSMUST00000042615|mus_mus|FALSE|FALSE (ssRNA)
RNA: GGGAGUUCUACAGUCCGACGAUCCAUUUCCAUUCAAUCUGGUCUUCCUGGAAGAACCAAUGCACACGAUUGUAUUCAGGAGUAGGGGAGAGAUAGGGUCUUGCCAAAGUUGGCUUGUGAGGUGGUAAUUAUUUGGUCAUUGACCAACAGAGGAUUGAGCAUCA

molecular target: T1, UNK ZnF1-3; assay: nsRBNS (natural sequence RNA bind-n-seq); RBNS binding buffer (assumed for nsRBNS): 25 mM Tris pH 7.5, 150 mM KCl, 3 mM MgCl2, 0.01% Triton X-100, 500 ug/ml BSA, 20 U/ml SUPERase-In, 4 C; UNK is unkempt and MSI1 is Musashi-1; names of the RNAs are library labels; protein concentration not given here; high values mean tight binding

Binder	binding signal [enrichment R]
B1	0.696
B2	0.662
B3	1.43
B4	0.601
B5	1.5
B6	0.715
B7	1.11
B8	1.25
B9	0.904
B10	1.11
B11	1.14
B12	0.794
B13	1.05
B14	1.07
B15	0.813
B16	1.14
B17	0.779
B18	1.4
B19	0.725
B20	0.273
B21	1.2
B22	1.42
